Sequences with one replicate were seen in a single cluster, so their values are uncertain.
Each sequence was assayed on ATP (assay: switch fluorescence ratio, 500 uM ATP over buffer (Cy3 cluster intensity, sum of 5 cycles each) (fold (ratio)); higher = stronger signal-on switching upon ATP binding; sequences stand for … in TCGTCGGCAGCGTCAGATGTGTATAAGAGACAGTTTTTTTTTTTTTTTTTTTTTTTTT…TC). Settings: aptamer strand: ATP DNA aptamer (quencher-CACCTGGGGGAGTATTGCGGAGGAAGG + anchor), 100 nM annealed; ATP concentration: 500 uM; one replicate.
Method in brief: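 Clusters with intensities outside 100-1000 RFU were excluded. The remaining Cy3-labelled switching-strand clusters on a modified Illumina MiSeq flow-cell had been annealed to 100 nM quencher-labelled ATP aptamer and imaged in selection buffer, then after 15 min with 500 uM ATP at 22 °C, for five cycles separated by NaOH stripping and re-annealing. The fluorescence ratio, averaged per switch-domain sequence, is each cluster's summed target-cycle Cy3 intensity over its summed buffer-cycle Cy3 intensity.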
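Also: ATP exposure 15 min at 22 °C before imaging.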

Sequence | switch fluorescence ratio
ATCAATCACT | 0.992
ATCACATCCC | 1.03
ATCACATTTG | 1.01
ATCACCATGG | 1.03
ATCACTCACC | 1.3
ATCACTGTCT | 0.973
ATCACTTAGG | 1.06
ATCACTTTTA | 0.998
ATCAGACAAT | 1.01
ATCAGAGAGG | 1.01
ATCAGAGGCT | 0.981
ATCAGATACG | 1.02
ATCAGCAAC | 2
ATCAGCCAAG | 1.03
ATCAGCGGAC | 2.37
ATCAGGAGCG | 1.02
ATCAGGATGA | 0.946
ATCAGTACTA | 1.04
ATCAGTCATA | 0.971
ATCAGTGGGC | 1
ATCAGTTGGG | 0.982
ATCATAAAAG | 0.989
ATCATAATAA | 1.04
ATCATAATTT | 0.981
ATCATCACGC | 1.06
ATCATCTTAA | 0.989

Sequence | switch fluorescence ratio
ATCATGACCT | 1.32
ATCATGCAGA | 1.01
ATCATGGACA | 1.07
ATCATGGGAG | 1
ATCATGTTGG | 0.948
ATCATGTTTA | 0.971
ATCATTACGT | 0.973
ATCATTATCG | 0.976
ATCATTCTAT | 0.987
ATCATTTGAA | 0.99
ATCCAAGGTT | 1.04
ATCCAGTAAT | 1.07
ATCCAGTGAG | 1.05
ATCCATCGCT | 1.11
ATCCCCGGGC | 1.1
ATCCCTCCAG | 1.44
ATCCCTGGGA | 1.03
ATCCCTGTCA | 1.03
ATCCCTTAAC | 1.05
ATCCGAGTA | 1.04
ATCCGATGTA | 1.08
ATCCGATTTT | 0.976
ATCCGCCGGA | 1.2
ATCCGCTGGT | 1.46
ATCCGGAGTT | 1.28
ATCCGGATCA | 1.04

Sequence | switch fluorescence ratio
ATCCGGATTG | 0.989
ATCCGGCAAT | 2.7
ATCCGGTA | 0.971
ATCCTACTCG | 1.02
ATCCTAGAGG | 1.01
ATCCTCATAG | 1.1
ATCCTGGGTT | 1.05
ATCCTTCGAA | 1.25
ATCCTTGGGT | 1.05
ATCCTTGTAT | 1
ATCCTTGTTA | 0.977
ATCGAAAATC | 1.03
ATCGACCAAC | 1.21
ATCGACCGTC | 1.06
ATCGACGCCG | 1.03
ATCGACTATA | 1.07
ATCGACTCAG | 1.01
ATCGAGAGTG | 0.98
ATCGAGTTTG | 0.961
ATCGATAAAT | 0.986
ATCGCAACGA | 1.08
ATCGCAGCGG | 1.05
ATCGCCTCCT | 1.06
ATCGCTGCAG | 1.03
ATCGGACACT | 1.04
ATCGGAGCTT | 1.28

Sequence | switch fluorescence ratio
ATCGGAGGTT | 0.993
ATCGGAGTGG | 1.02
ATCGGGCTAG | 0.967
ATCGGTCGAG | 1.01
ATCGGTTTAT | 1.11
ATCGTCACGC | 1.04
ATCGTCCACG | 1.02
ATCGTCCTTA | 0.973
ATCGTCGCGA | 0.995
ATCGTCTACT | 1.02
ATCGTTAAGT | 0.97
ATCGTTAGGC | 0.971
ATCGTTCTAA | 1.02
ATCGTTCTAC | 1
ATCGTTGGGG | 0.958
ATCTAATCGC | 1.02
ATCTACCCCG | 1.19
ATCTACCGT | 1.01
ATCTACTCCG | 1.39
ATCTAGACGC | 1.07
ATCTAGAGAC | 1.11
ATCTAGGAAC | 0.988
ATCTCAGCGC | 1.01
